For the assay, the target named is T1, human LRP6 on huLRP6-expressing BaF3 cells (human), O75581.
T1 chain: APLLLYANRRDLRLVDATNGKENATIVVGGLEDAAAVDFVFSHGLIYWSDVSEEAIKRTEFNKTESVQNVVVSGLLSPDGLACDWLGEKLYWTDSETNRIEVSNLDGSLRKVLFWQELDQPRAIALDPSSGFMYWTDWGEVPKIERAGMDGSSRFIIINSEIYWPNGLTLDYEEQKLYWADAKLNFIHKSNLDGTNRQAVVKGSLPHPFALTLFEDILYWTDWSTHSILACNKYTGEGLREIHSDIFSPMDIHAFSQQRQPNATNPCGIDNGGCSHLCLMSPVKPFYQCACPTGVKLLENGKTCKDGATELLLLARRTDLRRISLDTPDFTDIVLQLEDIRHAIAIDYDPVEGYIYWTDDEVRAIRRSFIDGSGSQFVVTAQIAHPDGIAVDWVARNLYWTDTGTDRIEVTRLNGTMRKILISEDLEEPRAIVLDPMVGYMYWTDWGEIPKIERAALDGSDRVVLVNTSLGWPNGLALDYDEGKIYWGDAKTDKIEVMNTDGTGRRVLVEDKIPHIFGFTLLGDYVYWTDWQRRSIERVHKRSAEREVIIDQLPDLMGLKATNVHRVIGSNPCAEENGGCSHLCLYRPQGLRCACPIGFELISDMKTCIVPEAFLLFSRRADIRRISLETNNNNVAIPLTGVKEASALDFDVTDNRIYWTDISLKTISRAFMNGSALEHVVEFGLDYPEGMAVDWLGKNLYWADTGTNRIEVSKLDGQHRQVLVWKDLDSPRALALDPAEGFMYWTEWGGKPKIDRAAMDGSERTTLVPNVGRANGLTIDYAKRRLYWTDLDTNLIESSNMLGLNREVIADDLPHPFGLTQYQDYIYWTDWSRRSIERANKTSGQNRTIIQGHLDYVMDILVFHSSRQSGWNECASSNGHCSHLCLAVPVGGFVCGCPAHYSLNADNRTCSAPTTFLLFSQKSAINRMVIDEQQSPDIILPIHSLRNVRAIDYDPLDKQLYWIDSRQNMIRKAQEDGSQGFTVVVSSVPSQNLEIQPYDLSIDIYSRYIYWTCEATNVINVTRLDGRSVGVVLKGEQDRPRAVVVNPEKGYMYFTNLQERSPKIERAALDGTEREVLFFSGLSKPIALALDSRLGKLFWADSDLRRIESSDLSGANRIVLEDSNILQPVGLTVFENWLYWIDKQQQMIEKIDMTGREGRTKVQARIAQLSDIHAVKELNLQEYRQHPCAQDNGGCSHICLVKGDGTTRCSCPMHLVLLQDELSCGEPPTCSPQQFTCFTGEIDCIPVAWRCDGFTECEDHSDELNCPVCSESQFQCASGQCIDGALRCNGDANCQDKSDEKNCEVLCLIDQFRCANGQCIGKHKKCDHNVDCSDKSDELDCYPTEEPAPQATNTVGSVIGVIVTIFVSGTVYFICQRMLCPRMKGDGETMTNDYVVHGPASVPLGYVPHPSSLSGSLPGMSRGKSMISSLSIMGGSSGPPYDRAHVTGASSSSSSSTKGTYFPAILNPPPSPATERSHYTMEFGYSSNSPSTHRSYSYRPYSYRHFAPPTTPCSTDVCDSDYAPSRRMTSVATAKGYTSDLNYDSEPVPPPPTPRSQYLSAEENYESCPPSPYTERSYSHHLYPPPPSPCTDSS
The assay can be described thus: FACS competition on huLRP6-expressing BaF3 cells; free LRP6 detected with anti-LRP6 antibody YW211.31.57. As to conditions: remark: other sources report otherwise.

IC50 data for one molecule are collected here from patent US20200270335A1.

B1: ACE503 HSA-huDKK2 C2 K202E/K220E (ligand)
chain: [skipping about 600 residues]GSHIKGHEGDPCLRSSDCIEGFCCARHFWTEICKPVLHQGEVCTKQRKEGSHGLEIFQRCDCAKGLSCKVWKDATYSSKARLHVCQKI
B1 yielded an IC50 of 100 µM.

For orientation: IC50 means the concentration that gives 50% inhibition.
